From PMC4336329 (PLoS ONE, 2015)
Out of some 310,000 compounds screened, about 2,200 (0.71%) showed an effect of 50% or more. The effect is printed as a negative number. The list shows a part of the results.

Each compound was assayed against human ether-à-go-go-related gene (hERG) potassium channel (human, UniProt Q12809) (assay: primary screen, population patch clamp on CHO cells stably expressing hERG).
human ether-à-go-go-related gene (hERG) potassium channel, sequence (Q12809 whole entry, looked up): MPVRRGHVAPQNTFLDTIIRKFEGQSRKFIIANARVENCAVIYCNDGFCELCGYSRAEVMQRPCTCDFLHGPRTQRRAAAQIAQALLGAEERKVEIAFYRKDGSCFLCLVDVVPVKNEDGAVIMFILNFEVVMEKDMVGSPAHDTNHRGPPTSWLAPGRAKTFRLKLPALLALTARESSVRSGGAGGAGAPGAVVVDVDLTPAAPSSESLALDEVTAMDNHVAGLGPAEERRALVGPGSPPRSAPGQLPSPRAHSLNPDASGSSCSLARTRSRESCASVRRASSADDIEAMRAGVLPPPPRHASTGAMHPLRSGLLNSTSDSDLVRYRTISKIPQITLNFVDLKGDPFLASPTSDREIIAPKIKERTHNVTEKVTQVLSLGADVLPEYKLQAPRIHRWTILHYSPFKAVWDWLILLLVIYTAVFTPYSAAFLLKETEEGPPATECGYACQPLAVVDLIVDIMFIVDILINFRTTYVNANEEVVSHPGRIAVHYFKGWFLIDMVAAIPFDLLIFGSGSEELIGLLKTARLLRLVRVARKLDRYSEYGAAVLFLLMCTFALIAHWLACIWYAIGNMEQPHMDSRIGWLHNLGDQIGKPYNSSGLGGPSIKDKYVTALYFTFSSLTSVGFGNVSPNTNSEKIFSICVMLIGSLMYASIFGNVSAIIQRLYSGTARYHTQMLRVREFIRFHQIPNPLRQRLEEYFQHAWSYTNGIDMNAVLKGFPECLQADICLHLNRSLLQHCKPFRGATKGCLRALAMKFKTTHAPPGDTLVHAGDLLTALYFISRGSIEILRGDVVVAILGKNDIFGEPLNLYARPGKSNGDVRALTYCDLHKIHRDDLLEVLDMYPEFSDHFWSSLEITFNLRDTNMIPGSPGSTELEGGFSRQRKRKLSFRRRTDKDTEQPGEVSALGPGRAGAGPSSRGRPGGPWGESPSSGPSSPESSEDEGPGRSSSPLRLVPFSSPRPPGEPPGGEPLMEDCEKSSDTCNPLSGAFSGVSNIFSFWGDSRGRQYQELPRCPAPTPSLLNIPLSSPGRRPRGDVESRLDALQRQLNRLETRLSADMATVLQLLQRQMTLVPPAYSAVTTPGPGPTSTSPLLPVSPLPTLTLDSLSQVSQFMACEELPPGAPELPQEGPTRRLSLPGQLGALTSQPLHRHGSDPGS

Row | Compound | hERG current change (%, negative = inhibition) at 1uM [%]
1 | Cc1csc(CN(C)C(=O)C2CCC(=O)N(CCCc3ccccc3)C2)n1 (centres unmarked) | 4.5
2 | CC(C)(C)c1ccc(-c2nnc3sc(-c4ccccn4)nn23)cc1 | 2.32
3 | COC(=O)CCSc1cc(NCCOC(C)=O)c([N+](=O)[O-])c2nonc12 | 5.08
4 | COc1ccc(NC(=O)COc2nsnc2N2CCOCC2)cc1 | 19
5 | CC(=O)c1cccc(S(=O)(=O)NCC(C)(C)N2CCOCC2)c1.O=C(O)C(=O)O | 9.67
6 | CCCCCCCCCCCC(=O)NC(C(=O)OCC)C(O)c1cccc([N+](=O)[O-])c1 (centres unmarked) | 11.1
7 | Cn1c(=O)c2sccc2n2c(CCCC(=O)NCc3ccc(F)cc3)nnc12 | 19.3
8 | CCOC(=O)C1=C(C)C2C3C(=O)N(c4cc(C)ccc4C)C(=O)C3C1(C)C1C(=O)N(c3cc(C)ccc3C)C(=O)C21 (centres unmarked) | 17.4
9 | COc1c(C)cccc1C(=O)Nc1ccc(N2CCOCC2)c(Cl)c1 | -10.9
10 | Cc1ccnc(NC(=O)CNC(=O)C23CC4CC(CC(C4)C2)C3)c1 | -0.0117
11 | O=C(O)C1CC1C(=O)N1CCN(c2ccc(Cl)c(Cl)c2)CC1 (centres unmarked) | 0.698
12 | N/C(CCN1CCCCC1)=N/O | 2.32
13 | Cc1nn(C)c(C)c1S(=O)(=O)NC1CCCC1 | 3.1
14 | COC(=O)C1=C(C)N(Cc2ccc(OC)cc2)C(=O)/C1=C\c1ccco1 | 2.54
15 | COc1cccc(-n2nnnc2SCC(=O)Nc2nc3c(s2)CCCC3)c1 | -0.0399
16 | COc1ccc2c(c1)CCC/C2=N\OC(=O)c1ccccc1F | 3.57
17 | COc1ccc(C2c3ccsc3CCN2C(C)=O)cc1 (centres unmarked) | 5.7
18 | COc1ccc(N(CC(=O)NCCC2=CCCCC2)S(=O)(=O)c2c(C)[nH]c(=O)[nH]c2=O)cc1 | 14.1
19 | CN(Cc1ccccc1)C(=O)c1[nH]cnc1C(=O)NCC(=O)OC(C)(C)C | 8.76
20 | COc1cc(NC(=O)CCN2CCOCC2)cc(OC)c1 | 17.1
21 | CC(OC(=O)C1CCCCC1)C(=O)Nc1cccc([N+](=O)[O-])c1 (centres unmarked) | 12.5
22 | COc1ccc(F)cc1S(=O)(=O)n1nnc2ccccc21 | 5.45
23 | C=CCn1c(=N)c(C(=O)OCC)cc2c(=O)n3cccc(C)c3nc21 | -73.7

Row | Compound | hERG current change (%, negative = inhibition) at 1uM [%]
24 | NC(=O)CC(NC(=O)Cc1cccc2ccccc12)c1ccc(N2CCCCCCC2)c([N+](=O)[O-])c1 (centres unmarked) | 1.69
25 | Nc1nc(CSc2nnc(-c3cccc(F)c3)n2-c2ccccc2)nc(N2CCOCC2)n1 | 5.47
26 | Cc1cc(C(=O)O/N=C(\N)c2ccncc2)ccc1[N+](=O)[O-] | 0.826
27 | COc1ccc(CN2CCCCCC2)cc1Br | 10
28 | Cc1ccc(C(=O)Oc2coc(CSc3nnc(NC(=O)C4CC4)s3)cc2=O)cc1 | 5.23
29 | Cc1cc(NS(=O)(=O)c2ccc(NC(=O)CN3C(=O)c4ccccc4C3=O)cc2)nc(C)n1 | -2.39
30 | CC(=O)/C(=C\N(C)C)Sc1ccc(C)cc1 | 27.2
31 | CCOC(=O)CN1C(=O)C(O)(CC(=O)c2cccc(OC)c2)c2ccccc21 (centres unmarked) | 14.8
32 | Cc1ccc(-c2noc(COc3ccc4c(c3)OCO4)n2)cc1 | 1.72
33 | COc1ccc(CNC(=O)CCNS(=O)(=O)c2ccc(NC(C)=O)cc2)cc1OC | 14.2
34 | COc1ccc2cc3c(N)nn(C(=O)Cc4ccc(Cl)cc4)c3nc2c1 | 12.1
35 | Cc1cccc(OCCCC(=O)Nc2ccc(S(=O)(=O)Nc3ncccn3)cc2)c1C | 15.4
36 | COC(=O)CNc1cccc(C(F)(F)F)c1 | 2.99
37 | COC(=O)c1c(C(=O)OC)c(-c2cccc(C)c2)n2c1CS(=O)C2 (centres unmarked) | 12.6
38 | CCOC(=O)C1=c2/c(=C/c3ccncc3)c(N)c(C(=O)OC)n2C(=O)C(c2ccncc2)S1 (centres unmarked) | 5.01
39 | CC(C)CN1CCNC(=O)C1CC(=O)NCCCN1CCCc2ccccc21 (centres unmarked) | 18.9
40 | CCOC(=O)CSc1nn(C)c(=S)s1 | 4.31
41 | Cc1ccc2[nH]cc(CCCN3C(=O)c4ccccc4C3=O)c2c1 | -5.28
42 | COc1ccc(CN(CC2CCC(C(=O)O)CC2)C(=S)Nc2cc(Cl)ccc2OC)cc1 (centres unmarked) | 11.2
43 | COc1cccc(CC2CC(=O)N(CCc3ccc4c(c3)OCO4)C2=O)c1 (centres unmarked) | 10.7
44 | O=C(Nc1ccc(N2CCN(C(=O)c3ccco3)CC2)c(Cl)c1)c1cc2ccccc2o1 | -1.49
45 | Cc1cc(C)c(OCCCCNCc2ccccc2)c(Cl)c1.O=C(O)C(=O)O | -23.4
46 | COc1ccc(C(=O)COC(=O)/C=C/c2ccc(S(=O)(=O)Nc3cccc(S(N)(=O)=O)c3)cc2)cc1 | 0.812

Row | Compound | hERG current change (%, negative = inhibition) at 1uM [%]
47 | O=C1OCCC1Sc1nnc(-c2ccc(Br)cc2)o1 (centres unmarked) | 15
48 | Cc1c(C(=O)NCc2ccccc2)oc2ccc(S(=O)(=O)N3CCCC3)cc12 | -3.31
49 | COc1ccc(-c2cc(-c3ccccc3O)[nH]n2)cc1OC | 12.2
50 | COc1ccc(NC(=S)Nc2ccccc2C(F)(F)F)cc1 | 9.35
51 | O=C(CCSc1ccc(Cl)cc1)Nc1cccnc1 | 5.73
52 | COc1ccc(C(=O)N2CCCN(C)CC2)cc1S(=O)(=O)N(C)Cc1ccccc1 | 7.13
53 | CC1(C)CC(=O)c2c(nn(-c3ccccc3)c2-c2ccncc2)C1 | 10.2
54 | COc1ccccc1-n1c(C)nnc1SCC(=O)Nc1cccc(C(C)=O)c1 | 4.31
55 | COc1cc(C2NC(=S)NC(C)=C2C(=O)c2ccccc2)ccc1O (centres unmarked) | 11.2
56 | CCC(=O)Nc1ccc2c(c1)nc(CN1CCCCC1)n2C | 7.61
57 | O=CN1CCc2scc[n+]2-c2ccccc21.[Br-] | 24.4
58 | CSc1nc2c(c(=O)n1C)SC(C)C2 (centres unmarked) | 0.117
59 | Cc1ccc(OCC(=O)Nc2cccc(S(=O)(=O)N3CCCCCC3)c2)cc1C | 11.8
60 | CN(n1cnc2ccccc2c1=O)S(C)(=O)=O | 13.4
61 | COc1cc(/C=C\C(=O)NCc2ccc3c(c2)cc(C)n3C)cc(OC)c1OC | 12.2
62 | COc1ccc(-c2noc(CN(C(=O)c3ccc(OC(C)=O)cc3)C(C)C)n2)cc1OC | 9.67
63 | COc1cc2c(cc1OC)CN(CC(=O)Nc1ccccc1SC)CC2 | 2.61
64 | CCCCn1c(N)c(N(CCC(C)C)C(=O)C2=COCCO2)c(=O)[nH]c1=O | 5.25
65 | O=C(NCc1cccs1)c1cc(-c2ccc(O)cc2)on1 | 11.7
66 | COc1ccc(CCNC(=O)CNC(=O)c2ccco2)cc1 | 16.3
67 | OCc1ccccc1NC(=S)Nc1cccnc1 | -5.08
68 | C/C(CC(=O)Nc1cccc(Cl)c1Cl)=N\NC(=O)C(=O)NC1CCCCC1 | 4.78
69 | Cc1ccc(S(=O)(=O)N2CCC(C(=O)NCCCN3CCOCC3)CC2)cc1 | 1.42

Row | Compound | hERG current change (%, negative = inhibition) at 1uM [%]
70 | O=C(CSc1nc2ccccc2[nH]1)Nc1ccc(N2CCOCC2)cc1 | 9.23
71 | CCC(C)NC(=O)Cn1ccc2cc(S(=O)(=O)N3CCCCCC3)ccc21 (centres unmarked) | 10.3
72 | COc1ccc(CC2S/C(=C(\C#N)C(=O)NCc3ccco3)N(c3ccc(C)cc3)C2=O)cc1 (centres unmarked) | 7.56
73 | COc1cc(OC)c(C2=NOC(C(=O)NCc3cccnc3)C2)cc1Cl (centres unmarked) | 16.2
74 | CN1CCN(C(=O)C2CCC(=O)N(Cc3cccc(C(F)(F)F)c3)C2)CC1 (centres unmarked) | 6.99
75 | CCOC(=O)c1cnc(Nc2nc3ccccc3o2)nc1CSc1nnc(C)s1 | 11.2
76 | COC(=O)c1ccccc1Nc1ccccc1 | 15.9
77 | CCOC(=O)c1ccc(NC(=O)c2sc3nc(N4CCOCC4)c4c(c3c2N)CCCC4)cc1 | 7.44
78 | O=C(CNS(=O)(=O)c1cccs1)N1CCC2(CC1)OCCO2 | 14.7
79 | CCC(=O)N(Cc1ccccc1)c1ccccn1 | 12.1
80 | CCCCN1C(=O)C(=O)N(CC(=O)Nc2ccccc2C(=O)OCC)C1=O | 8.3
81 | CC1(C)CC(=O)C2=C(C1)N(N1CCOCC1)C(N)=C(C#N)C2c1cccnc1 (centres unmarked) | 21.1
82 | CS(=O)(=O)N1CCC(C(=O)N2CCN(c3cccc(Cl)c3)CC2)CC1 | 3.4
83 | Cc1ccc(OCCC(=O)Nc2ccc(S(=O)(=O)Nc3cc(C)nc(C)n3)cc2)cc1 | 7.12
84 | Cc1cc(NS(=O)(=O)c2ccc(NC(=S)NC(=O)c3ccc(F)cc3)cc2)no1 | 0.776
85 | Cc1cc(N2CCN(c3ccccc3)CC2)nc(-n2nc(C)cc2C)n1 | -51
86 | NNc1nc(N)c2c(n1)-c1ccccc1CC21CCCC1 | 15.8
87 | CS(=O)(=O)N1CCC(C(=O)NCc2ccc3c(c2)OCO3)CC1 | 12
88 | COCC(C)NCc1ccc(C)cc1C (centres unmarked) | -1.57
89 | Cc1cc(NC(=O)CSCC(=O)N(C)Cc2ccc(F)cc2)no1 | 11.4
